Where “and” joins values, the source holds several entries; their conditions need not be identical. Equal values may be shown once. The list shows a part of the results. These are further read-outs of the screen, such as a control signal, another cell line or another target. No call is given for them.

Holding throughout (assay): Primary Screen for Target Class Profiling of Small Molecule Inhibitors of Methyltransferases
Assay [1] addresses Glycine N-methyltransferase (Homo sapiens) (UniProt Q14749). As to conditions: purified enzyme, MTase-Glo SAH luminescence; measured here: GNMT inhibition; at 40 µM; stronger effect = lower value. The method, boiled down: (§1)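 Each enzyme was assayed with SAM and its substrate. SAH formation detected by MTase-Glo luminescence; single-point 40 uM screen[…].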
The target of assay [2] is Guanidinoacetate N-methyltransferase (Homo sapiens) (UniProt Q14353). The conditions noted are these: purified enzyme, MTase-Glo SAH luminescence; measured here: GAMT inhibition; at 40 µM; stronger effect = lower value. The method, boiled down:
as §1

The target in assay [3] is Histamine N-methyltransferase (Homo sapiens) (UniProt P50135). The conditions noted are these: purified enzyme, MTase-Glo SAH luminescence; measured here: HNMT inhibition; at 40 µM; stronger effect = lower value. An outline of the steps: as §1
The target in assay [4] is Nicotinamide N-methyltransferase (Homo sapiens) (UniProt P40261). As to conditions: purified enzyme, MTase-Glo SAH luminescence; measured here: NNMT inhibition; at 40 µM; stronger effect = lower value. The method, boiled down:
as §1

Assay [5] has as its target Phenylethanolamine N-methyltransferase (Homo sapiens) (UniProt P11086). The conditions noted are these: purified enzyme, MTase-Glo SAH luminescence; measured here: PNMT inhibition; at 40 µM; stronger effect = lower value. The method, boiled down:
as §1
% is set by controls: 0 for no effect and ±100 for the full control effect.

Consider `Cc1ccc(Cn2c(=O)c3ccc(C(=O)NCC(C)C)cc3n3c(=O)n(CC(N)=O)nc23)cc1`, for which the activity change, negative = inhibition was found to be 4.33% in assay [1]; 0% in assay [2]; 7% in assay [3]; 3.97% in assay [4]; 4.36% in assay [5].
Take `CN=C(NC#N)NCCSCc1nc[nH]c1C`: the activity change, negative = inhibition was -3.53% in assay [1]; 5.42% in assay [2]; 1.27% in assay [3]; -5.01% in assay [4]; 6.78% in assay [5].
As to `COc1ccc(N2C(=O)c3ccc(-c4ccco4)n3CC2(C)C(=O)NCc2ccc(Cl)cc2)cc1OC` (stereo not given), the activity change, negative = inhibition in assay [1] was -21%; in assay [2], 1.75%; in assay [3] it was -5.75%; in assay [4] it was -4.69%; in assay [5] it was -2.29%.
Consider `C=C1CC2OC(=O)C(COC)C2C(OC(=O)/C(C)=C\C)CC2(C)OC1=CC2=O` (stereo not given), for which the activity change, negative = inhibition is -1.42% in assay [1]; -3.86% in assay [2]; 7.96% in assay [3]; -15.3% in assay [4]; 4.95% in assay [5].
The corresponding values for `Cn1ccc(C(=O)NCc2nnc3n2C(C(=O)NCCc2ccc(Cl)cc2)CC3)n1` (stereo not given) are -7.68%, -4.51%, -5.64%, -9.03% and 6.04%.
Take `O=C(N[C@H]1CCC[C@H](CO)C1)C1CCN(c2nc3cc(Cl)c(-c4ccc(Cl)cc4)cc3o2)CC1`: the activity change, negative = inhibition in assay [1] was -4.19%; in assay [2], 5.91%; in assay [3], 5.08%; in assay [4] it was -14.6%; in assay [5], 1.44%.
Take `Cc1ccc(Cn2c(=O)c3ccccc3n3c(=O)n(CC(=O)Nc4ccc5c(c4)OCO5)nc23)cc1`: the activity change, negative = inhibition came out at 2.52% in assay [1]; 3.95% in assay [2]; 5.13% in assay [3]; 0.827% in assay [4]; 0.114% in assay [5].
As for `CC(C)CCn1c(=O)c2ccc(C(=O)NC(C)C)cc2n2c(=O)n(Cc3ccc(F)cc3Cl)nc12`, the activity change, negative = inhibition in assay [1] was -0.642%; in assay [2] it was 0%; in assay [3], 10.8%; in assay [4], -5.33%; in assay [5], -2.96%.
Consider `CCC(C)NC(=O)c1ccc2c(=O)n(C)c3nn(CC(=O)Nc4ccccc4F)c(=O)n3c2c1` (stereo not given), for which the activity change, negative = inhibition in assay [1] is 5.91%; in assay [2] it was 0.41%; in assay [3], 10.9%; in assay [4], -0.028%; in assay [5] it was 3.31%.
The corresponding values for `Cc1ccc(Cn2c(=O)c3ccccc3n3c(CCC(=O)N4CCC(C)CC4)nnc23)cc1` are -1.01%, 0%, 3.6%, -2.77% and -7.15%.
The corresponding values for `COc1c[nH]c(CN2CCN(C)C3(CCC(=O)N(C)CC3)C2)cc1=O` (stereo not given) are 1.65%, 1.47%, 2.45%, 1.25% and 4.72%.
For the compound `OCc1ccc(-c2ccc(-c3ccc(CO)s3)o2)s1`, the activity change, negative = inhibition is -6.34% in assay [1]; -5.78% in assay [2]; 6.92% in assay [3]; -9.19% in assay [4]; -0.532% in assay [5].
`CC1=NS(=O)(=O)N(C)C=C1C(=O)OCc1noc(-c2ccco2)n1`: the activity change, negative = inhibition in assay [1] is -5.97%; in assay [2], -7.5%; in assay [3] it was -2.7%; in assay [4], -9.06%; in assay [5], -1.85%.
The corresponding values for `CC1CCN(CCCNC(=O)C2CCc3sc(C(=O)N4CCCC4)cc3C2)CC1` (stereo not given) are -2%, -1.17%, -53.6%, -7.58% and -5.51%.
Regarding `CNc1nc(Nc2ccc(C(=O)N3CCOCC3)cc2OC)nc2[nH]cc(Cl)c12`, the activity change, negative = inhibition in assay [1] was -6.07%; in assay [2], -6.2%; in assay [3], 6.93%; in assay [4] it was -11.4%; in assay [5], 2.12%.
Consider `COc1ccc2c(c1)CCN=C2C[C@H]1CN(C(=O)c2ccc(F)cc2)CC[C@H]1CC(=O)O`, for which the activity change, negative = inhibition was -6.24% in assay [1]; -19.5% in assay [2]; -2.46% in assay [3]; -18.3% in assay [4]; -2.67% in assay [5].
The corresponding values for `O=C(C1CCCN([S+](=O)([O-])c2cccc(C(F)(F)F)c2)C1)N1CCC(c2nc3ncccc3[nH]2)C1` (stereo not given) are -8.49%, -4.78%, -3.94%, -19.1% and 10.1%.
The corresponding values for `COc1cccc(CN2C(=O)c3cc4sccc4n3CC2(C)C(=O)NC2CCCCCC2)c1` (stereo not given) are -5.68%, 3.15%, -3.75%, -17.2% and -9.47%.
As for `CC1(C(=O)NC2CCCCC2)Cn2nc(-c3cccs3)cc2C(=O)N1Cc1cccc(Cl)c1` (stereo not given), the activity change, negative = inhibition came out at 2.13% in assay [1]; 0% in assay [2]; 10.2% in assay [3]; 6.31% in assay [4]; 3.3% in assay [5].
Consider `O=c1c(-c2ccc(O)cc2)coc2cc(O)cc(O)c12`, for which the activity change, negative = inhibition in assay [1] was -10%; in assay [2], 7.87%; in assay [3], -7.86%; in assay [4] it was -17.9%; in assay [5], 3.15%.
The corresponding values for `Cc1cccc(NC(=O)c2ncn3c2C(=O)N(C2CC2)C(C)(C(=O)NCc2ccc(F)cc2)C3)c1C` (stereo not given) are 1.16%, 0%, 12.3%, 8.29% and 6.22%.
On to `O=C(NCc1ccc2c(c1)CCCO2)c1ccc(C2CCNC2)cc1` (stereo not given), for which the activity change, negative = inhibition in assay [1] is -2.58%; in assay [2], 1.02%; in assay [3], -36.5%; in assay [4], -8.7%; in assay [5], 6.42%.
For the compound `C[C@H]1[C@@H]2[C@@H](O)C([C@H](C)C(=O)NCc3cccs3)CC[C@@]2(C)CC[C@@H]1NC(=O)COc1ccccc1` (stereo not given in full), the activity change, negative = inhibition in assay [1] is -7.59%; in assay [2], -8.51%; in assay [3], -5.93%; in assay [4], -7.01%; in assay [5] it was -4.21%.
As to `COC(=O)c1ccc(OC(CO)C(O)c2ccc(O)c(OC)c2)c(OC)c1` (stereo not given), the activity change, negative = inhibition in assay [1] is -7.4%; in assay [2], -6.24%; in assay [3] it was 0.275%; in assay [4], -16.5%; in assay [5] it was -15.4%.
As to `Cc1cc(N2CCOCC2)ccc1Nc1nc(NC2CCCCC2)c2[nH]cnc2n1`, the activity change, negative = inhibition in assay [1] was -4.88%; in assay [2], -5.08%; in assay [3], -19%; in assay [4] it was -74.8%; in assay [5], -28.5%.
Turning to `C[C@H](NC(=O)Cc1cc(F)cc(F)c1)C(=O)N[C@@H]1C(=O)N(C)c2ccccc2-c2ccccc21`, the activity change, negative = inhibition was -4.3% in assay [1]; -1.87% and -13.5% and -22.3% in assay [2]; 5.26% in assay [3]; -38.4% and -39.4% and -46.7% in assay [4]; -13.8% and -8.07% and -19.1% in assay [5].
Regarding `O=C(NCC1(Cn2cccn2)CC1)c1ccc(C2CCNC2)cc1` (stereo not given), the activity change, negative = inhibition was -0.281% in assay [1]; -5.1% in assay [2]; -4.29% in assay [3]; 3.55% in assay [4]; 0.12% in assay [5].
The corresponding values for `O=C(Cn1ccc2cc(S(=O)(=O)N3CCCCC3)ccc21)NCCc1ccccc1` are 1.77%, 1.91%, 0.687%, -6.92% and -4.27%.
Take `CCN1CCN(CCNC(=O)Cn2ccc3cc(S(=O)(=O)N4CCCCC4)ccc32)CC1`: the activity change, negative = inhibition was 3.55% in assay [1]; 2.61% in assay [2]; -25.2% in assay [3]; -1.75% in assay [4]; -3.03% in assay [5].

The record behind these values is PubChem BioAssay AID1745853 (National Center for Advancing Translational Sciences (NCATS), 2022).
